In PMC12602705:
Like-named read-outs stand apart in the source and are kept apart here. These are yes or no findings as the source states them, for the method shown. In cells and extracts the contact can be indirect. Some binding calls cover weakened binding; strength is not graded here. For some assays here: Where a sequence is shown, tags or fusion partners need not be part of it.

Protein sequences, listed by entry. Tags and fused reporters are not part of them.
UniProt Q9UDY8: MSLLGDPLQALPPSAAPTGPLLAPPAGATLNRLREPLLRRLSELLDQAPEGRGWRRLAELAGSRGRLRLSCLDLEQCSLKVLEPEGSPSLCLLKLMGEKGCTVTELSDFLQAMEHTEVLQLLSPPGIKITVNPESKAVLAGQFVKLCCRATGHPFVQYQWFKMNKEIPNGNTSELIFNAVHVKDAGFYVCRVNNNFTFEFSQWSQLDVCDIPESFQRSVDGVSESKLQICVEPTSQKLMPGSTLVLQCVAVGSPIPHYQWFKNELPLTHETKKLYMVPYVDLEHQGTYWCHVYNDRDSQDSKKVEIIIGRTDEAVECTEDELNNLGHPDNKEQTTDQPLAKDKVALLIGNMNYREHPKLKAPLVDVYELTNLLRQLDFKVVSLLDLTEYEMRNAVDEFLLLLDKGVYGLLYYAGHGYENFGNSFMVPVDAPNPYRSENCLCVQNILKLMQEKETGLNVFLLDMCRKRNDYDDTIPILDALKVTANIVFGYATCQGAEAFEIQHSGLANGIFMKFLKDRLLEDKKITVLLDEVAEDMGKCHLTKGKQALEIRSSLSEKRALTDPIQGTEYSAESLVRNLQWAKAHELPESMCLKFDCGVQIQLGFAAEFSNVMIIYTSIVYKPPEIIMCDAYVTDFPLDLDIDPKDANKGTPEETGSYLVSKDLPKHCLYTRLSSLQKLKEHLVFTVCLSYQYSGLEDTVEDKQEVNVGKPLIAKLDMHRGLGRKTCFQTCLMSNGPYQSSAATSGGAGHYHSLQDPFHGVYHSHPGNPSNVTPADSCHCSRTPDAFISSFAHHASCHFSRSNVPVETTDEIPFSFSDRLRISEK

What was measured:
[1] = target: T1, BCL10 WT (3xFLAG-BCL10 WT and HA-BCL10 WT) (UniProt O95999); test: co-IP; HEK293T cells, transient co-expression of Flag-tagged BCL10 (WT or mutant) with HA-BCL10 WT or HA-MALT1 WT; lysis in co-IP buffer (25 mM HEPES pH 7.5, 150 mM NaCl, 0.2% NP-40, 10% glycerol, 1 mM DTT); anti-Flag-M2 IP overnight at 4 °C, Protein G Sepharose; Western blot
T1 sequence: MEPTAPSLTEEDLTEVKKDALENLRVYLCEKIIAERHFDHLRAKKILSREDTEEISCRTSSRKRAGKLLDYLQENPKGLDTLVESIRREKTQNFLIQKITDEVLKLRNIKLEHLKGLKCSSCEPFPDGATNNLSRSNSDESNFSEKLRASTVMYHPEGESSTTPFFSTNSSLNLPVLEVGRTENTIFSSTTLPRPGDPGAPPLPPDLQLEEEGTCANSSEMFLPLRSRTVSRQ

[2] = target: T2, Flag-tagged BCL10 KKK17/31/63RRR (UniProt O95999); test: as above
T2 sequence: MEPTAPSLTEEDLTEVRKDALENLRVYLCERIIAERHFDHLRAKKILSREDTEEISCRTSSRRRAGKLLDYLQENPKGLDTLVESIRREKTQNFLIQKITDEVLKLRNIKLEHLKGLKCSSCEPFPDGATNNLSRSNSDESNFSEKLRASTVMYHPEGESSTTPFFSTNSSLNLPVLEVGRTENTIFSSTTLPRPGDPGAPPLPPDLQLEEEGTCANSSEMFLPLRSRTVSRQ

[3] = target: T3, BCL10 5xK/R (K90, K98, K105, K110, K115 to R) (UniProt O95999); test: pull-down; BCL10 KO Jurkat T cells reconstituted with Strep-tagged BCL10 WT or mutants, untreated or stimulated with P/I; 3 x 10^7 cells lysed in co-IP buffer; Strep-Tactin Sepharose pulldown (Strep-PD) at 4 °C overnight; endogenous MALT1 and CARD11 detected by Western blot
T3 sequence: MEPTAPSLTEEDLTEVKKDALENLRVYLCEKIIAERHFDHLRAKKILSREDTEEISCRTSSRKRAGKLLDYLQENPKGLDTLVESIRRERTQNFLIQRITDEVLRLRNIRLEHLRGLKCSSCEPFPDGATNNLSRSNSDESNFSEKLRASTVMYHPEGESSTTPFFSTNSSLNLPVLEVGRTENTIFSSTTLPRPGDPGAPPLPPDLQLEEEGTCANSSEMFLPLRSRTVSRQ

[4] = target: T4, BCL10 6xK/R (K90, K98, K105, K110, K115 and K118 to R) (UniProt O95999); test: as above
T4 sequence: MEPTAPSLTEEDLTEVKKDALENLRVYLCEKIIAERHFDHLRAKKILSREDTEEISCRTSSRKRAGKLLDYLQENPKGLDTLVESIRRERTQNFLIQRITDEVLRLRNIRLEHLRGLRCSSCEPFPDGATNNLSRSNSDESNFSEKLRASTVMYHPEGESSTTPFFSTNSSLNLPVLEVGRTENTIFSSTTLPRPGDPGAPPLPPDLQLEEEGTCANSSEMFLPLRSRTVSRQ

BCL10 KK118/146RR = target: T5, BCL10 KK118/146RR (UniProt O95999); test: as above
T5 sequence: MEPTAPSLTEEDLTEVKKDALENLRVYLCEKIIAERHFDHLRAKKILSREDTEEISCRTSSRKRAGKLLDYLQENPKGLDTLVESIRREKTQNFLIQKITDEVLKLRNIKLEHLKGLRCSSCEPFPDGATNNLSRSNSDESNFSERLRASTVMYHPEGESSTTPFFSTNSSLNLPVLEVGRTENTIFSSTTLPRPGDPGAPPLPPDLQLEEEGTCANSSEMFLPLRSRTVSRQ

[5] = target: T6, Flag-Strep-tagged (ST) BCL10 WT (UniProt O95999); test: as above
T6 sequence: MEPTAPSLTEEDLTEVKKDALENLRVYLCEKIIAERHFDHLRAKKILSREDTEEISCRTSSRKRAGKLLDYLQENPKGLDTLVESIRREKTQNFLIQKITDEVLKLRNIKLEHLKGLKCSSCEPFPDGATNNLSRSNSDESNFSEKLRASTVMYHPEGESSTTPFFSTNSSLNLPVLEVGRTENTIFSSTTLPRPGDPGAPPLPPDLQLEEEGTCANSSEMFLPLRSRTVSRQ

[6] = target: T7, Strep-tagged (ST) BCL10 KK31/63RR (UniProt O95999); test: as above
T7 sequence: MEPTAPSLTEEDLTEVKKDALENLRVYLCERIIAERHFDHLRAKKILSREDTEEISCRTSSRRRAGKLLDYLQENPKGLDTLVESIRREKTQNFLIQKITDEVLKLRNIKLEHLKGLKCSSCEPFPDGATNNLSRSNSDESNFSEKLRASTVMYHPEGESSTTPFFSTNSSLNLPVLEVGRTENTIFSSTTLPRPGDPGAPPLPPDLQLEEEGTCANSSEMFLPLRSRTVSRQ

[7] = target: T8, Strep-tagged (ST) BCL10 L104R (UniProt O95999); test: as above
T8 sequence: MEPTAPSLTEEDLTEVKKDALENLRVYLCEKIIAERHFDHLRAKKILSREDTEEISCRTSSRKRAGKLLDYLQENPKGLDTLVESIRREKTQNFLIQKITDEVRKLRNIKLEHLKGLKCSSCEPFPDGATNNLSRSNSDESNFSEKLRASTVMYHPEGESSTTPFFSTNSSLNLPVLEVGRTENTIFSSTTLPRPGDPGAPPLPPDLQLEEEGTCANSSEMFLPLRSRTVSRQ

[8] = target: T1, BCL10 WT (3xFLAG-BCL10 WT and HA-BCL10 WT); test: co-IP; HEK293T cells, transient co-expression of Flag-tagged BCL10 (WT or mutant) with HA-BCL10 WT or HA-MALT1 WT; lysis in co-IP buffer (25 mM HEPES pH 7.5, 150 mM NaCl, 0.2% NP-40, 10% glycerol, 1 mM DTT); anti-Flag-M2 IP overnight at 4 °C, Protein G Sepharose; Western blot; remark: listed apart in the source
[9] = target: T9, Flag-tagged BCL10 KK31/63RR (UniProt O95999); test: as above
T9 sequence: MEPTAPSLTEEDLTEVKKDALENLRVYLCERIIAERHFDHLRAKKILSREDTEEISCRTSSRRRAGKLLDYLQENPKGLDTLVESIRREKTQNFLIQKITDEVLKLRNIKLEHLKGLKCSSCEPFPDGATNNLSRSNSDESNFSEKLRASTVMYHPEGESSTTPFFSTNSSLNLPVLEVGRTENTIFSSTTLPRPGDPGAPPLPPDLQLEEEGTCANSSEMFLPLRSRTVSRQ

[10] = target: T10, Flag-tagged BCL10 R42E, O95999; test: as above; conditions: remark: other sources report otherwise
T10 chain: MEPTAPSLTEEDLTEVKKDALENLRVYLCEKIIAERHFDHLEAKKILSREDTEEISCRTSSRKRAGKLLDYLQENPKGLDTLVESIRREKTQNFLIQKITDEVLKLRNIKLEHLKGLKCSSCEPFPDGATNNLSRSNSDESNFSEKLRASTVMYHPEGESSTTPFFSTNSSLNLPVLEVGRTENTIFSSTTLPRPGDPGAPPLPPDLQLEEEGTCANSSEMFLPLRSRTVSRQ

Molecule: HA-tagged MALT1 WT (from UniProt Q9UDY8 1-824)
- binding [1]: binds
- binding [2]: binds

Molecule: MALT1 (endogenous, Jurkat T cells) (from UniProt Q9UDY8 1-824)
- binding [3]: binds
- binding [4]: binds
- binding (BCL10 KK118/146RR): binds
- binding [5]: binds
- binding [6]: binds
- binding [7]: no binding

B1: BCL10 WT (3xFLAG-BCL10 WT and HA-BCL10 WT) (protein, UniProt O95999 1-233)
chain: MEPTAPSLTEEDLTEVKKDALENLRVYLCEKIIAERHFDHLRAKKILSREDTEEISCRTSSRKRAGKLLDYLQENPKGLDTLVESIRREKTQNFLIQKITDEVLKLRNIKLEHLKGLKCSSCEPFPDGATNNLSRSNSDESNFSEKLRASTVMYHPEGESSTTPFFSTNSSLNLPVLEVGRTENTIFSSTTLPRPGDPGAPPLPPDLQLEEEGTCANSSEMFLPLRSRTVSRQ
- binding [8]: binds
- binding [9]: binds

B2: BCL10 WT (3xFLAG-BCL10 WT and HA-BCL10 WT), O95999 1-233 (protein)
chain: MEPTAPSLTEEDLTEVKKDALENLRVYLCEKIIAERHFDHLRAKKILSREDTEEISCRTSSRKRAGKLLDYLQENPKGLDTLVESIRREKTQNFLIQKITDEVLKLRNIKLEHLKGLKCSSCEPFPDGATNNLSRSNSDESNFSEKLRASTVMYHPEGESSTTPFFSTNSSLNLPVLEVGRTENTIFSSTTLPRPGDPGAPPLPPDLQLEEEGTCANSSEMFLPLRSRTVSRQ
- binding [10]: binds
